Consider 40 compounds from the antibiotic and cytotoxicity screens of Wong et al. (2023).

SMILES strings stand for the structures. This is one part of the list.

For the assay, the system named is HepG2. Nature of the assay: cytotoxicity call (relative viability < 0.9). The settings on record: 10 µM.
Consider `O=C(C[C@@H]1CC[C@H]2[C@@H](COC[C@H](O)CN2C(=O)c2cnccn2)O1)N1CCN(c2ccccc2)CC1`, for which the cytotoxicity call was “inactive”. For `C[C@@H]1CN([C@H](C)CO)C(=O)c2cc(NC(=O)CCC(F)(F)F)ccc2O[C@@H](C)CCCCO[C@@H]1CN(C)C(=O)c1ccccc1`, the cytotoxicity call is “inactive”.

As to `COc1ccc(cc1)CN1CC[C@]2(CC1)CN([C@H](CO)c1[nH]c3cc(ccc3c12)OC)C(=O)Nc1ccc(cc1)F`, the cytotoxicity call is “active”. To `COc1ccc(CN(C)C[C@H]2OCCCC[C@@H](C)Oc3ccc(NC(=O)Nc4ccc(C(F)(F)F)cc4)cc3C(=O)N([C@H](C)CO)C[C@@H]2C)cc1` belongs “active”. Take `C[C@H](CO)N1C[C@H](C)[C@H](CN(C)S(=O)(=O)c2ccc(Cl)cc2)Oc2ccc(N(C)C)cc2CC1=O`: the cytotoxicity call was “active”. To `COc1ccc(S(=O)(=O)Nc2cccc3c2O[C@@H](CN(C)S(=O)(=O)c2cccs2)[C@@H](C)CN([C@H](C)CO)C3=O)cc1` belongs “inactive”; to `C[C@H]1CN([C@@H](C)CO)C(=O)Cc2cc(NC(=O)Nc3ccccc3)ccc2O[C@H]1CN(C)S(=O)(=O)c1cn(C)cn1`, “inactive”; to `COc1ccc(NC(=O)Nc2ccc3c(c2)CC(=O)N([C@H](C)CO)C[C@@H](C)[C@@H](CN(C)Cc2ccc(C(F)(F)F)cc2)O3)cc1`, “active”.

With `C[C@H]1CN([C@@H](C)CO)C(=O)c2cccc(NS(=O)(=O)c3cn(C)cn3)c2O[C@@H]1CN(C)CC1CC1`, the cytotoxicity call was “inactive”.

Take `C[C@@H]1CN([C@H](C)CO)C(=O)Cc2cc(NC(=O)CCN3CCOCC3)ccc2O[C@@H]1CN(C)CC1CC1`: the cytotoxicity call was “inactive”. To `COC(=O)C(CC#Cc1ccc2c(c1)[C@]1(C(=O)N2)[C@H](c2ccc(O)cc2)N2[C@H](c3ccccc3)[C@H](c3ccccc3)OC(=O)[C@H]2[C@@H]1C(=O)N1CCc2cc(OC)c(OC)cc2C1)C(=O)OC` belongs “inactive”; to `COc1cc(C(=O)O)cc(OC)c1O`, “inactive”.

As for `C[C@@H]1CN([C@H](C)CO)C(=O)c2cccc(NS(=O)(=O)c3cn(C)cn3)c2O[C@@H]1CN(C)S(=O)(=O)c1cccs1`, the cytotoxicity call was “inactive”. `C[C@H](CO)N1C[C@H](C)[C@H](CN(C)CC2CCCCC2)Oc2ccc(NS(=O)(=O)c3cn(C)cn3)cc2C1=O`: the cytotoxicity call is “inactive”. To `C[C@@H]1CCCCO[C@H](CN(C)C(=O)c2ccccc2)[C@@H](C)CN([C@H](C)CO)C(=O)c2cc(NS(=O)(=O)c3ccc(Cl)cc3)ccc2O1` belongs “inactive”. As for `C[C@@H]1CN([C@H](C)CO)C(=O)c2c(c3ccccc3n2C)-c2ccccc2CO[C@@H]1CN(C)Cc1cccc(C(=O)O)c1`, the cytotoxicity call was “inactive”. For `O=C(C[C@H]1C[C@@H]2c3cc(NC(=O)NC4CCCC4)ccc3O[C@@H]2[C@H](CO)O1)NCc1ccc2c(c1)OCO2`, the cytotoxicity call is “inactive”.

For `C[C@@H]1CCCCO[C@@H](CN(C)C(=O)c2ccccc2)[C@@H](C)CN([C@H](C)CO)C(=O)c2cc(NC(=O)Nc3cccc4ccccc34)ccc2O1`, the cytotoxicity call is “inactive”.

As to `C[C@H](CO)N1C[C@H](C)[C@H](CN(C)S(C)(=O)=O)Oc2c(NS(=O)(=O)c3ccccc3)cccc2C1=O`, the cytotoxicity call is “inactive”.

For the compound `COc1cc(C2Oc3cc(C4Oc5cc(O)cc(O)c5C(=O)C4O)ccc3OC2CO)ccc1O` (stereo not given), the cytotoxicity call was “inactive”.

Consider `COc1ccc(-c2cnc3c(c2)C(=O)N([C@H](C)CO)C[C@H](C)[C@H](CN(C)S(=O)(=O)c2cccs2)O3)cc1`, for which the cytotoxicity call is “inactive”. Take `C[C@H](CO)N1C[C@H](C)[C@@H](CN(C)C(=O)Nc2ccc3c(c2)OCO3)Oc2ccc(NC(=O)Cn3cnnn3)cc2CC1=O`: the cytotoxicity call is “inactive”. On to `COc1ccc(S(=O)(=O)N(C)C[C@@H]2OCCCC[C@H](C)Oc3ccc(NC(=O)Nc4cccc5ccccc45)cc3C(=O)N([C@@H](C)CO)C[C@H]2C)cc1`, for which the cytotoxicity call is “inactive”.

As to `C[C@@H]1CN([C@@H](C)CO)C(=O)c2cc(NC(=O)c3ccccc3)ccc2O[C@@H](C)CCCCO[C@H]1CN(C)Cc1ccccc1`, the cytotoxicity call is “inactive”. Then `COc1ccc(S(=O)(=O)N(C)C[C@@H]2OCCCC[C@@H](C)Oc3ccc(NS(=O)(=O)c4cn(C)cn4)cc3C(=O)N([C@@H](C)CO)C[C@H]2C)cc1`, with “inactive”. `Cc1ccc(S(=O)(=O)N(C)C[C@H]2Oc3ccc(NC(=O)Nc4ccc(C(F)(F)F)cc4)cc3C(=O)N([C@H](C)CO)C[C@@H]2C)cc1`: the cytotoxicity call is “inactive”. On to `Cc1cc(C(=O)Nc2cccc3c2O[C@@H](CN(C)S(=O)(=O)c2cccs2)[C@@H](C)CN([C@H](C)CO)C3=O)n(C)n1`, for which the cytotoxicity call was “inactive”. Consider `C[C@@H]1CN([C@H](C)CO)C(=O)c2cc(NC(=O)Cc3ccccc3)ccc2O[C@@H](C)CCCCO[C@H]1CN(C)C(=O)Nc1ccc2c(c1)OCO2`, for which the cytotoxicity call was “inactive”. As to `COc1ccc(S(=O)(=O)N(C)C[C@H]2Oc3ccc(NC(=O)CCN4CCOCC4)cc3CC(=O)N([C@H](C)CO)C[C@H]2C)cc1`, the cytotoxicity call was “inactive”. Consider `COc1ccccc1-c1ccc2c(c1)O[C@@H](CN(C)C(=O)c1cccnc1)[C@@H](C)CN([C@H](C)CO)S2(=O)=O`, for which the cytotoxicity call was “inactive”.

For `CC1(C)OC2CC3C4CC(F)C5=CC(=O)C=CC5(C)C4(F)C(O)CC3(C)C2(C(=O)CO)O1` (stereo not given), the cytotoxicity call is “inactive”. Consider `Cc1noc(C)c1S(=O)(=O)N(C)C[C@@H]1Oc2ccc(NC(=O)Cn3cnnn3)cc2CC(=O)N([C@H](C)CO)C[C@H]1C`, for which the cytotoxicity call is “inactive”. As for `O=C(O)C[C@H]1Nc2ccccc2NC1=O`, the cytotoxicity call was “inactive”.

`C[C@H](CO)N1C[C@H](C)[C@H](CN(C)C(=O)c2ccccc2)OCCCC[C@H](C)Oc2ccc(NC(=O)C3CCCCC3)cc2C1=O`: the cytotoxicity call is “inactive”. Then `C[C@@H]1CCCCO[C@@H](CN(C)Cc2ccccc2)[C@H](C)CN([C@H](C)CO)C(=O)c2cc(NC(=O)CCC(F)(F)F)ccc2O1`, with “inactive”; and `C[C@@H]1CN([C@H](C)CO)C(=O)c2cc(NC(=O)C3CC3)ccc2O[C@@H]1CN(C)Cc1ccc(C(=O)O)cc1`, with “inactive”; and `C[C@@H]1CCCCO[C@@H](CN(C)C(=O)Nc2ccc(F)cc2)[C@@H](C)CN([C@H](C)CO)C(=O)c2cc(NC(=O)Nc3ccc(F)cc3)ccc2O1`, with “inactive”. As for `COc1cccc(S(=O)(=O)N[C@H]2CC[C@H](CC(=O)NC3CCC3)O[C@@H]2CO)c1`, the cytotoxicity call was “inactive”. For `O=C(C[C@@H]1CC[C@@H]2[C@H](COC[C@H](O)CN2S(=O)(=O)c2ccccc2)O1)NCc1ccc2c(c1)OCO2`, the cytotoxicity call was “inactive”. `C[C@@H]1CN([C@H](C)CO)C(=O)c2cc(NC(=O)Nc3ccc(C(F)(F)F)cc3)ccc2O[C@@H](C)CCCCO[C@@H]1CN(C)C(=O)CCCN(C)C`: the cytotoxicity call is “inactive”.
